Results reported in patent US20100284992A1 (priority 2006, published 2010).

Tested on: caspase-3 in HUVEC
Method: The aspartate-specific cysteinyl proteases or caspases are a set of mediators implicated in apoptosis. The activation of caspase-3 in mammalian cells is a hallmark of apoptosis. To assess whether the mode of death induced by PlcHR2 was apoptotic or necrotic, caspase-3 activity was assayed with the colorimetric CaspACE Assay system (Promega, Madison, Wis.). The colorimetric substrate (Ac-DEVD-pNA) is hydrolyzed by activated caspase-3 releasing pNA producing a yellow color that is quantified at an absorbance of 405 nm. Camptothecin, a topoisomerase I inhibitor, was used as a positive control for activation of caspase-3 and induction of apoptosis. For inhibition of apoptosis Z-VAD-FMK was added to samples at a final concentration of 50 μM. HUVEC were cultivated in 6 well tissue culture dishes to 80-90% confluency at which time the media was exchanged with 2 ml of fresh media containing PlcHR2 or other compounds to be examined. The cultures were allowed to incubate at 37° C. in 5% CO2 for 3 to 16 hours. The cells were harvested by trypsin/EDTA treatment, washed with ice cold PBS and suspended in lysis buffer at a concentration of 1×10^8 cells/ml. […]
Both caspase-3 activation and LDH release were measured at 16 hours post treatment with increasing concentrations of PlcHR2. […]

COC(=O)C[C@H](NC(=O)[C@H](C)NC(=O)[C@@H](NC(=O)OCc1ccccc1)C(C)C)C(=O)CF [Z-VAD-FMK] (Cbz-Val-Ala-Asp(OMe)-CH2F)
inhibition of PlcHR2 activation of caspase-3: inhibited substantially all PlcHR2 activation of caspase-3

CC[C@@]1(O)C(=O)OCc2c1cc1n(c2=O)Cc2cc3ccccc3nc2-1 [camptothecin]
level of caspase-3 activity compared with 6.25 ng/ml PlcHR2: similar

Where a SMILES comes first, the peptide text is derived from it. The star is where a group is joined. Cbz = O=C(OCc1ccccc1)*; CH2F = FC*
